# Test results taken from the supplement of paper PMC9446081.
# The campaign covered roughly 39,000 compounds. About 220 (0.56%) showed activity. Some of the results follow.
# System: Escherichia coli K-12 BW25113
# Experiment: relative growth (OD600 normalised to plate interquartile mean) (fraction); higher = less growth inhibition, active = 0.2 or less
# Settings: 50 µM; LB; incubation time: overnight (16-24 h)
# 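Also: static incubation at 37 °C against the wild-type strain, values averaged over two biological replicates.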
row,Structure (SMILES),relative growth
1,C[C@@H]1CN([C@H](C)CO)C(=O)c2ccccc2-c2ccccc2CO[C@@H]1CN(C)Cc1ccc(Cl)c(Cl)c1,inactive: 0.995
2,C[C@@H]1CN([C@H](C)CO)C(=O)Cc2cc(NS(=O)(=O)c3ccc(Cl)cc3)ccc2O[C@H]1CN(C)S(=O)(=O)c1cn(C)cn1,inactive: 0.98
3,Cc1noc(C)c1NC(=O)N(C)C[C@H]1Oc2ccc(NC(=O)NC(C)C)cc2C(=O)N([C@@H](C)CO)C[C@H]1C,inactive: 0.986
4,C[C@@H]1CN([C@@H](C)CO)C(=O)c2cc(NC(=O)Cc3cn(C)c4ccccc34)ccc2O[C@@H]1CN(C)CC1CCCCC1,inactive: 0.948
5,Cc1noc(C)c1NC(=O)N[C@@H]1C=C[C@@H](CC(=O)NCCCN(C)C)O[C@H]1CO,inactive: 0.963
6,COc1ccccc1CNC(=O)C[C@@H]1CC[C@H]2[C@@H](COC[C@H](O)CN2C(=O)Nc2ccc(F)cc2)O1,inactive: 1.01
7,C[C@@H]1CCCCO[C@H](CN(C)Cc2ccc3c(c2)OCO3)[C@@H](C)CN([C@H](C)CO)C(=O)c2cc(NC(=O)Nc3cccc4ccccc34)ccc2O1,inactive: 0.98
8,CN[C@@H]1[C@H](O)[C@H](NC)[C@H]2O[C@@]3(O)C(=O)C[C@@H](C)O[C@H]3O[C@@H]2[C@H]1O,active: 0.0458
9,Cc1cc(C(=O)Nc2cccc3c2O[C@H](CN(C)S(=O)(=O)c2ccc(F)cc2)[C@H](C)CN([C@H](C)CO)C3=O)n(C)n1,inactive: 0.956
10,NCc1cn(-c2ccccc2)nc1C12CC3CC(CC(C3)C1)C2,inactive: 0.352
11,CSc1cc(-c2ccc(Cl)cc2)nc(-c2cccs2)c1,inactive: 0.966
12,Cc1noc(C)c1NC(=O)N(C)C[C@@H]1Oc2ccc(NC(=O)Nc3cccc4ccccc34)cc2CC(=O)N([C@H](C)CO)C[C@H]1C,inactive: 0.997
13,COc1cc2c(cc1-c1coc3c4c(ccc3c1=O)OC(C)(C)CC4)OCO2,inactive: 0.977
14,CCCOc1ccc(C(=O)OCCN(CC)CC)cc1N.Cl,inactive: 0.84
15,O=C(C[C@H]1CC[C@@H]2[C@H](COC[C@@H](O)CN2C(=O)Nc2ccc(C(F)(F)F)cc2)O1)NCCc1ccncc1,inactive: 0.964
16,C[C@H]1CN([C@@H](C)CO)S(=O)(=O)c2ccc(C#CC3(O)CCCC3)cc2O[C@@H]1CN(C)C(=O)Nc1ccccc1,inactive: 0.998
17,C[C@@H]1CCCCO[C@H](CN(C)CC2CCCCC2)[C@@H](C)CN([C@H](C)CO)C(=O)c2cc(NC(=O)Cc3ccccc3)ccc2O1,inactive: 1.01
18,Cc1ccc(S(=O)(=O)Nc2cccc3c2O[C@@H](CN(C)S(=O)(=O)c2ccccc2)[C@@H](C)CN([C@@H](C)CO)C3=O)cc1,inactive: 1.02
19,C[C@@H]1CN([C@H](C)CO)C(=O)c2cc(NC(=O)Nc3ccc4c(c3)OCO4)ccc2O[C@@H]1CN(C)Cc1ccc(-c2ccccc2)cc1,inactive: 0.966

row,Structure (SMILES),relative growth
1,C[C@@H]1CCCCO[C@@H](CN(C)C(=O)Cc2ccccc2)[C@@H](C)CN([C@H](C)CO)C(=O)c2cc(NC(=O)Nc3ccc(C(F)(F)F)cc3)ccc2O1,inactive: 1.04
2,CO[C@@H]1CN(C)C(=O)c2ccc(NC(=O)CC(F)(F)F)cc2OC[C@H](C)N(S(=O)(=O)c2cn(C)cn2)C[C@H]1C,inactive: 0.985
3,COc1ccc2c3c([nH]c2c1)[C@@H](CO)N(C[C@]13CCN(CC1)C(=O)Nc1c(noc1C)C)C(=O)Nc1ccc(cc1)F,inactive: 1.01
4,C[C@@H]1CCCCO[C@H](CN(C)S(=O)(=O)c2cccs2)[C@@H](C)CN([C@@H](C)CO)C(=O)c2cc(NC(=O)Cc3ccccc3)ccc2O1,inactive: 1.03
5,C[C@@H]1CN([C@@H](C)CO)C(=O)c2cc(NC(=O)Nc3cccc4ccccc34)ccc2O[C@H]1CN(C)C(=O)NC1CCCCC1,inactive: 1.02
6,CC(C)(N)c1nc(-c2ccc(OC(F)(F)F)cc2)c[nH]1,inactive: 0.959
7,CO[C@H]1CN(C)C(=O)c2cc(NC(=O)c3ccc(F)cc3)ccc2OC[C@@H](C)N(C(=O)CN(C)C)C[C@@H]1C,inactive: 0.982
8,C[C@@H]1CCCCO[C@@H](CN(C)Cc2ccc(C(=O)O)cc2)[C@H](C)CN([C@H](C)CO)C(=O)c2cc(NS(=O)(=O)c3ccccc3)ccc2O1,inactive: 0.98
9,C[C@H]1CN([C@@H](C)CO)S(=O)(=O)c2ccc(-c3ccc(F)cc3)cc2O[C@H]1CN(C)S(C)(=O)=O,inactive: 1.01
10,C[C@H](CO)N1C[C@H](C)[C@@H](CN(C)S(=O)(=O)c2cccs2)Oc2ccc(NC(=O)Nc3cccc4ccccc34)cc2CC1=O,inactive: 1
11,CN1C(=O)c2cc(NC(=O)C3CCOCC3)ccc2OC[C@H]2O[C@@H](CC(=O)NCc3ccccc3F)CC[C@H]21,inactive: 0.964
12,C[C@@H]1CCCCO[C@@H](CN(C)Cc2ccc(Cl)c(Cl)c2)[C@H](C)CN([C@H](C)CO)C(=O)c2cc(NC(=O)Cc3ccccc3)ccc2O1,inactive: 0.922
13,C[C@@H]1CCCCO[C@H](CN(C)Cc2ccc3c(c2)OCO3)[C@@H](C)CN([C@@H](C)CO)C(=O)c2cc(NS(=O)(=O)c3ccc(F)cc3)ccc2O1,inactive: 0.991
14,C[C@H](CO)N1C[C@H](C)[C@@H](CN(C)C(=O)CCCN(C)C)OCc2cnnn2CCCC1=O,inactive: 0.967
15,C[C@@H]1CN([C@H](C)CO)C(=O)Cc2cc(NC(=O)Nc3ccc4c(c3)OCO4)ccc2O[C@@H]1CN(C)S(C)(=O)=O,inactive: 1
16,C[C@@H]1CCCCO[C@@H](CN(C)Cc2ccccc2)[C@@H](C)CN([C@H](C)CO)C(=O)c2cc(NS(=O)(=O)c3ccc(F)cc3)ccc2O1,inactive: 0.987
17,O=C(C[C@@H]1C[C@H]2c3cc(NC(=O)Nc4ccc(C(F)(F)F)cc4)ccc3O[C@H]2[C@@H](CO)O1)NCc1cc(F)ccc1F,inactive: 0.997
18,O=C(C[C@@H]1CC[C@H]2[C@@H](COC[C@@H](O)CN2S(=O)(=O)c2ccc(Cl)cc2)O1)NCc1ccncn1,inactive: 1.01
19,C[C@@H]1CCCCO[C@H](CN(C)C(=O)c2ccccc2)[C@@H](C)CN([C@H](C)CO)C(=O)c2cc(NC(=O)NC3CCCCC3)ccc2O1,inactive: 0.991
